In publication PMC6057933:
No constants are given. Whether binding was seen depends on the method and setting. For some of these results: In cells and extracts the contact can be indirect. Some results given as binding are weak or reduced against the parent protein; the word gives no strength. For some of these results: Where a sequence is shown, tags or fusion partners need not be part of it.

Amino acid sequences for entries named in this document (tags omitted).
UniProt Q9UNE7: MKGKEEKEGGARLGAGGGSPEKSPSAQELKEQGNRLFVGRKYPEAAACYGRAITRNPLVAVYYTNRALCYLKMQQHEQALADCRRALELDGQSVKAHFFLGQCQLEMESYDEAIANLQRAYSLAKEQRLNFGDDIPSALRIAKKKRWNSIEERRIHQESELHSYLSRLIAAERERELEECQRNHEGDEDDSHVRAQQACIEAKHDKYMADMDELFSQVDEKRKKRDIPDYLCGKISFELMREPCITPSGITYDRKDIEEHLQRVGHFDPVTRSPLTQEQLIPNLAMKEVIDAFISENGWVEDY

T1: interferon regulatory factor-1 (IRF-1), endogenous (human (endogenous in HCC1937)) (UniProt P10914)
T1 sequence: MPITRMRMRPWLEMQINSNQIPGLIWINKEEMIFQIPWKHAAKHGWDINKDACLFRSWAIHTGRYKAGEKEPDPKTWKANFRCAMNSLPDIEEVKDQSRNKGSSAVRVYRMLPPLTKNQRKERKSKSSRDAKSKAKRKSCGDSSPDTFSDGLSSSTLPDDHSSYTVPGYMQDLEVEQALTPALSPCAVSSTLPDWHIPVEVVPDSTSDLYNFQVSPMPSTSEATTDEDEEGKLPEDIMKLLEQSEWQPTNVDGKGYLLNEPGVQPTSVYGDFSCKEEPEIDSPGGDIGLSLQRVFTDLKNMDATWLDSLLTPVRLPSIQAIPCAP

T2: IRF-1 in the cells of the transfection experiments (human) (UniProt P10914)
T2 sequence: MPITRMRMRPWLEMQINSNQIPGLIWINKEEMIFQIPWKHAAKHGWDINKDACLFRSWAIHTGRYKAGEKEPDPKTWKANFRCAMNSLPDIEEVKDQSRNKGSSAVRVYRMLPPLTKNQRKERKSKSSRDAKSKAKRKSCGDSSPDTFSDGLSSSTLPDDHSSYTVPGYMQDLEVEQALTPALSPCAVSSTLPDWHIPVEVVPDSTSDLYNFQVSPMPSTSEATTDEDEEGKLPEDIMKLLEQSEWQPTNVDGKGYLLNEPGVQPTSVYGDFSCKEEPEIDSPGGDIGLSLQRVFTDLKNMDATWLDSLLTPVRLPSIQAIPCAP

T3: GST-fused XAF1 (GST-XAF1) (human) (UniProt Q6GPH4)
T3 sequence: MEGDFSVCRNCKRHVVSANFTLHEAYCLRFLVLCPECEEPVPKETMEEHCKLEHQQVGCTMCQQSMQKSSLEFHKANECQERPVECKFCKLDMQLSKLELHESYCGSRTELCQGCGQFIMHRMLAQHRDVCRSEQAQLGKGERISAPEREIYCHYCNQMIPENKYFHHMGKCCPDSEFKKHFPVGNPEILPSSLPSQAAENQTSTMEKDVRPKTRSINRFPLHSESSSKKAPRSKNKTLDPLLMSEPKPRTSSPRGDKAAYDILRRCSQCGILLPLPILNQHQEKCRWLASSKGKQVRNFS


Assays:
[1] = molecular target: T1, interferon regulatory factor-1 (IRF-1), endogenous (human (endogenous in HCC1937)); test: proximity ligation; Duolink In Situ Orange kit; fixed, permeabilised cells transfected with siRNAs (20 pM) and exposed to 5-FU (25 μM, 24 h) or IFN-γ; primary antibodies to XAF1, IRF-1, CHIP; confocal microscopy
[2] = molecular target: T1, interferon regulatory factor-1 (IRF-1), endogenous (human (endogenous in HCC1937)); test: co-IP; endogenous proteins in HCC1937 cells; IP for IRF-1 with rabbit antibody, IB with mouse antibody
[3] = molecular target: T2, IRF-1 in the cells of the transfection experiments (human); test: co-IP; IP assay of XAF1A or XAF1C with IRF-1 in cells (Fig. 3j)
[4] = molecular target: T2, IRF-1 in the cells of the transfection experiments (human); test: sequential ChIP; cell lysates precipitated with anti-IRF-1 antibody, the resulting complexes precipitated with anti-XAF1 antibody; PCR of the IRFE region of the PUMA promoter
[5] = molecular target: T3, GST-fused XAF1 (GST-XAF1) (human); test: pull-down; in vitro binding of purified GST-XAF1 and r-His-IRF-1 in binding assay buffer, 6 h at 4 °C; complexes separated with protein-A/G Sepharose 1 h; immunoblot; both purified

Molecule	binding [1]	binding [3]	other results
C-terminus of Hsc70-interacting protein (CHIP), endogenous (from UniProt Q9UNE7 1-303) (enzyme)	binds	–	–
WT-XAF1 (XAF1A), expressed from a plasmid in cells (protein, UniProt Q6GPH4-1 1-301) MEGDFSVCRNCKRHVVSANFTLHEAYCLRFLVLCPECEEPVPKETMEEHCKLEHQQVGCTMCQQSMQKSSLEFHKANECQERPVECKFCKLDMQLSKLELHESYCGSRTELCQGCGQFIMHRMLAQHRDVCRSEQAQLGKGERISAPEREIYCHYCNQMIPENKYFHHMGKCCPDSEFKKHFPVGNPEILPSSLPSQAAENQTSTMEKDVRPKTRSINRFPLHSESSSKKAPRSKNKTLDPLLMSEPKPRTSSPRGDKAAYDILRRCSQCGILLPLPILNQHQEKCRWLASSKGKQVRNFS	–	binds	binding [4]: binds
N-terminal His-tagged recombinant human IRF-1 (r-His-IRF-1) (protein, UniProt P10914 1-325) MPITRMRMRPWLEMQINSNQIPGLIWINKEEMIFQIPWKHAAKHGWDINKDACLFRSWAIHTGRYKAGEKEPDPKTWKANFRCAMNSLPDIEEVKDQSRNKGSSAVRVYRMLPPLTKNQRKERKSKSSRDAKSKAKRKSCGDSSPDTFSDGLSSSTLPDDHSSYTVPGYMQDLEVEQALTPALSPCAVSSTLPDWHIPVEVVPDSTSDLYNFQVSPMPSTSEATTDEDEEGKLPEDIMKLLEQSEWQPTNVDGKGYLLNEPGVQPTSVYGDFSCKEEPEIDSPGGDIGLSLQRVFTDLKNMDATWLDSLLTPVRLPSIQAIPCAP	–	–	binding [5]: binds

Second part, led by results:

binding [1]	binding [3]	Molecule	other results
binds	–	X-linked inhibitor of apoptosis (XIAP)-associated factor 1 (XAF1), endogenous (protein, UniProt Q6GPH4 1-301) MEGDFSVCRNCKRHVVSANFTLHEAYCLRFLVLCPECEEPVPKETMEEHCKLEHQQVGCTMCQQSMQKSSLEFHKANECQERPVECKFCKLDMQLSKLELHESYCGSRTELCQGCGQFIMHRMLAQHRDVCRSEQAQLGKGERISAPEREIYCHYCNQMIPENKYFHHMGKCCPDSEFKKHFPVGNPEILPSSLPSQAAENQTSTMEKDVRPKTRSINRFPLHSESSSKKAPRSKNKTLDPLLMSEPKPRTSSPRGDKAAYDILRRCSQCGILLPLPILNQHQEKCRWLASSKGKQVRNFS	binding [2]: binds
–	no binding	XAF1C (protein, UniProt Q6GPH4-5 1-166) MEGDFSVCRNCKRHVVSANFTLHEAYCLRFLVLCPECEEPVPKETMEEHCKLEHQQVGCTMCQQSMQKSSLEFHKANECQERPVECKFCKLDMQLSKLELHESYCGSRTELCQGCGQFIMHRMLAQHRDVCRSEQAQLGKETSPDPGKCLSITVAAALSAHLWPFT	–
